Test results reported in PubChem BioAssay (NCATS).
This list was built around the results that the source calls inconclusive (neither active nor inactive); the mix of calls is not that of the screen. For some assays here: A potency beside an inconclusive call is a rough fit, not a confirmed value. Active and inactive are the calls of the source. The call rests on the fitted dose curve; in most records, active means well fitted curve in the direction sought with a large enough effect; inconclusive means small, poorly fitted or top-dose-only effect, or another doubt; inactive means no such curve, though single readings can be large; an effect the other way counts as inactive or inconclusive.

Experiments:
[1] = UWB1.289 Cancer Cell Toxicity qHTS against the NCATS CANVASS Library (AID 1347347); further: potency means the concentration at half of the fitted maximal effect; nearly all actives have a fitted effect of over 60% in size
In short: (§1)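 1000 cells/well seeded and rested 4 h at 37 °C before pin transfer of compounds in an 11-pnt series. Exposure 72 h at 37 °C/5% CO2; viability by CellTiter-Glo luminescence after 15 min at room temperature.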

[2] = OV-SAHO Cancer Cell Toxicity qHTS against the NCATS CANVASS Library (AID 1347348); details: OV-SAHO viability, CellTiter-Glo luminescence, 72 h; series mostly up to 38.3 µM; further: potency means the concentration at half of the fitted maximal effect; nearly all actives have a fitted effect of over 55% in size
In short: as §1

[3] = Panc-1005 Cancer Cell Toxicity qHTS against the NCATS CANVASS Library (AID 1347349); further: nearly all actives have a fitted effect of over 60% in size
In short: as §1

[4] = tested on: NAD(P)H diaphorase (Clostridium kluyveri); assay: Diaphorse counterscreen qHTS: Assay Interference Panel against the NCATS CANVASS Library (AID 1347362)
In short: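 Clostridium kluyveri diaphorase in PBS + 0.01% Tween-20 preincubated 15 min with compounds. Resazurin and NADH then added for 5 min at room temperature in the dark; resorufin fluorescence read (ex 525, em 598).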

[5] = KB-8-5-11 Cancer Cell Toxicity qHTS against the NCATS CANVASS Library (AID 1347364); details: activity change, negative = toxicity: at 46.1 µM (top of the series); further: potency means the concentration at half of the fitted maximal effect; nearly all actives have a fitted effect of over 75% in size
In short: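 Luminescent ATP signal (CellTiter-Glo, 10 min at room temperature) measured cell survival of KB-8-5-11 after 72 hr compound treatment. For confirmation, the cells were also grown with 1uM tariquidar.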

[6] = SDT Cancer Cell Toxicity qHTS against the NCATS CANVASS Library (AID 1347365); further: potency means the concentration at half of the fitted maximal effect; nearly all actives have a fitted effect of over 60% in size
In short: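 Canine SDT glioma cell toxicity was scored by ATP-dependent luminescence after a 72 hr incubation with an 11-point compound series.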

[7] = KB-3-1 Cancer Cell Toxicity qHTS against the NCATS CANVASS Library (AID 1347366); further: potency means the concentration at half of the fitted maximal effect; nearly all actives have a fitted effect of over 75% in size
In short: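 KB-3-1 cells (500 cells/well) in DMEM + 10% FBS were treated with compounds for 72 hr at 37C, 5% CO2. Viability was read as CellTiter-Glo luminescence after 10 minutes at room temperature.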

[8] = J3T Cancer Cell Toxicity qHTS against the NCATS CANVASS Library (AID 1347371); further: potency means the concentration at half of the fitted maximal effect
In short: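 ATP-based cytotoxicity in canine J3T cells: 72 hr exposure at 37C, 11-point titration, CellTiterGlo luminescent detection.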

[9] = molecular target: Nuclear receptor subfamily 1 group I member 3 (Homo sapiens) (UniProt Q14994); assay: qHTS for Constitutive Androstane Receptor (CAR) Agonist screened against the NCATS CANVASS Library (AID 1347373);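 further: every well also contained 1.5 µM PK11195 alongside the test compound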; further: potency means the concentration at half of the fitted maximal effect
Sequence of UniProt Q14994 (Q14994 whole entry, looked up): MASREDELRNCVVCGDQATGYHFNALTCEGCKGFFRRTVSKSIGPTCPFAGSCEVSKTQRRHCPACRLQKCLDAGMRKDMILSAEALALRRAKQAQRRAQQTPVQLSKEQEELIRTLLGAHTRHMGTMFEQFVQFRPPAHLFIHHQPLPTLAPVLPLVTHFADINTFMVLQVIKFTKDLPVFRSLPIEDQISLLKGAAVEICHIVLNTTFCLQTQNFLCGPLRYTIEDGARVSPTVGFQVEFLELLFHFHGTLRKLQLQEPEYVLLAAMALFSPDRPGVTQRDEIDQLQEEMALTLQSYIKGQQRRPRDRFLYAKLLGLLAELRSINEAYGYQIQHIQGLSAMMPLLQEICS
In short: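 In an 11-point concentration series, compounds were incubated 24hr with HepG2 cells carrying hCAR and a CYP2B6-2.2kb reporter, with PK11195 at 1.5uM final. A CellTiter-Fluor viability read preceded the ONE-Glo luminescence read.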

[10] = qHTS for Hypoxia signaling pathway (HIF-1) antagonists against the NCATS CANVASS Library (AID 1347374); further: nearly all actives have a fitted effect of over 60% in size; further: potency means the concentration at half of the fitted maximal effect;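 on activity change, negative = inhibition: HRE-bla ME-180 cells stimulated with cobalt chloride to stabilize HIF-1alpha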
In short: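 Beta-lactamase reporter under HRE control in ME-180 cells; CoCl2 stimulus (60 uM solution as added), compounds 11-pt qHTS, 17 h 37C. CCF4 dye 2 h RT, 460/530 nm emission. CellTiter-Glo viability in same wells.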

[11] = qHTS for Hypoxia signaling pathway (HIF-1) agonists against the NCATS CANVASS Library (AID 1347375); further: potency means the concentration at half of the fitted maximal effect
In short: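 An HRE-beta-lactamase ME-180 line is exposed for 17 h to an 11-point compound series, then read by CCF4-AM FRET. Cytotoxicity is measured in parallel in the same wells with CellTiter-Glo, and autofluorescence is checked separately.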

[12] = DH5-alpha competent E. coli microbial cell viability qHTS against the NCATS CANVASS Library (AID 1347377); details: viability signal change, negative = cytotoxic: at 46.1 µM (top of the series); further: potency means the concentration at half of the fitted maximal effect
In short: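 Overnight incubation at 37C, 5% CO2 of E. coli DH5-alpha (diluted to 0.2 OD) with compounds precedes BacTiter-Glo addition. Luminescence, acquired after 20 min at room temperature, reflects viable-cell ATP.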

[13] = qHTS for Antimalaria activity screened against the NCATS CANVASS Library (AID 1347380); further: nearly all actives have a fitted effect of over 40% in size; further: potency means the concentration at half of the fitted maximal effect;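 on activity change, negative = inhibition: Plasmodium falciparum strain Dd2 asexual parasites grown in red blood cells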
In short: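 Measures proliferation or cytotoxicity against Dd2 blood stages in 72 h cultures, 11-point qHTS dosing, with SYBR Green fluorescence as read-out; dihydroartemisinin titration served as control.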

[14] = qHTS for activators of Nrf2/ARE signaling pathway screened against the NCATS CANVASS Library (AID 1347391)
In short: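 Activation of Nrf2/ARE was scored in ARE-bla HepG2 cells after 16 h compound exposure using CCF4 beta-lactamase fluorescence ratio readings.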

[15] = qHTS for inhibitors of ER calcium dysfunction: SERCaMP assay screened against the NCATS CANVASS Library (AID 1347393); details: SH-SY5Y GLuc-SERCaMP secretion, thapsigargin, luminescence; activity change, negative = inhibition: at 76.6 µM (top of the series) unless noted; further: potency means the concentration at half of the fitted maximal effect; nearly all actives have a fitted effect of over 40% in size
In short: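 SH-SY5Y GLuc-SERCaMP, 1000 cells/well, 4 h attach; cpd 16 h, 37C/5% CO2; thapsigargin (added as 6x 600 nM) 4 h; coelenterazine; luminescence. Reduced reporter release = ER Ca stabilization.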

[16] = Vero-766 cells viability qHTS against the NCATS CANVASS Library: Counterscreen for Zika virus inhibition assay (AID 1347394); details: Vero 766 viability, CellTiter-Glo luminescence, 72 h; activity change, negative = cytotoxic: at 46.1 µM (top of the series)
In short: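 Uninfected Vero 766 (African green monkey) cells, 1000/well, attached overnight, then exposed 72 h at 37C to compounds (11-point qHTS). Viability read by CellTiter-Glo luminescence; media-only wells served as 100% inhibition.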

[17] = qHTS for inhibitors of Wild type Zika virus screened against the NCATS CANVASS Library (AID 1347396); further: potency means the concentration at half of the fitted maximal effect
In short: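 Vero 766 (African green monkey) cells, 1000 per well, attached overnight, then compounds were added in an 11-point series before wild-type Zika virus infection. After 72 h at 37C, cell viability was read as CellTiter Glo luminescence.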

[18] = HPAF-II Cancer Cell Toxicity qHTS against the NCATS CANVASS Library (AID 1347346); further: nearly all actives have a fitted effect of over 55% in size; further: potency means the concentration at half of the fitted maximal effect
In short: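 Using 1000 HPAF-II cells per well, we titrated compounds over 11 concentrations for 72 h at 37 degrees C/5% CO2, with bortezomib as control. Cell survival was quantified by CellTiter-Glo luminescence.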

[19] = A2780 Cisplatin Sensitive Ovarian Cancer Cell Toxicity qHTS against the NCATS CANVASS Library (AID 1347353); further: nearly all actives have a fitted effect of over 60% in size; further: potency means the concentration at half of the fitted maximal effect
In short: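 Quantitative HTS format: eleven compound concentrations applied to pre-seeded cells, 72 h incubation at 37 °C, then ATP detection by luminescence.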

[20] = UWB1.289-WTBRCA1 Cancer Cell Toxicity qHTS against the NCATS CANVASS Library (AID 1347354)
In short: (§2)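 Using an ATP-based luminescent reagent after three days of treatment, toxicity is scored across an eleven-concentration range in wells holding 1000 cells each.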

[21] = qHTS for H2AX Agonists against the NCATS CANVASS Library (AID 1347378)
In short: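 CHO-K1 cells were plated overnight at 37C, then exposed to compounds (concentration series, 0.76% DMSO final) for 3 hr at 37C. Lysates received Eu-cryptate anti-pH2AX (S139) and d2 anti-H2AX antibodies; after 24 hr at room temperature, TR-FRET 665/620 nm ratio was read.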

[22] = Secretion counterscreen for inhibitors of the SERCaMP assay screened against the NCATS CANVASS Library (AID 1347390); details: SH-SY5Y constitutive GLuc secretion, luminescence, 20 h; activity change, negative = inhibition: at 76.6 µM (top of the series);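 further: light from luciferase secreted into medium read as a measure of general secretion; potency means the concentration at half of the fitted maximal effect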
In short: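 SH-SY5Y cells expressing constitutively secreted GLuc, 1000 cells/well, attached 4 h at 37C, then exposed to compounds (0.001 - 77 uM, 11-pnt series) for 20 h. Coelenterazine added; luminescence read to flag secretory-pathway interferers.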

[23] = SW1088 Cancer Cell Toxicity qHTS against the NCATS CANVASS Library (AID 1347350); further: potency means the concentration at half of the fitted maximal effect; nearly all actives have a fitted effect of over 75% in size
In short: as §1

[24] = U-118MG Cancer Cell Toxicity qHTS against the NCATS CANVASS Library (AID 1347351)
In short: as §1

[25] = HEK-293 Cancer Cell Toxicity qHTS against the NCATS CANVASS Library (AID 1347355); further: potency means the concentration at half of the fitted maximal effect; nearly all actives have a fitted effect of over 65% in size
In short: as §2

[26] = Redox Reaction Profiling qHTS: Assay Interference Panel against the NCATS CANVASS Library (AID 1347401)
In short: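 Fluorescence read-out (525 nm excitation, 598 nm emission) at time zero and after 15 min in the dark tracked resorufin formation. Mix: 5 uM resazurin, 200 uM DTT, HEPES pH 7.3 buffer with NaCl.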
Tags describe the fitted curve by direction and shape.

For `C=C(C)CC[C@H](Cc1c(O)cc(O)c2c1O[C@H](c1ccc(O)cc1)CC2=O)C(=C)C`, which Potency [1] is on record?
Its Potency is inconclusive: 13.3 µM [cytotoxic, partial curve].

And the Potency [2]?
The Potency was inconclusive: 23.6 µM [cytotoxic, partial curve].

What about the Potency [3] of the same molecule?
The Potency was “inactive”.

And the Potency [4]?
The Potency was “inactive”.

What about the Potency [5] of the same molecule?
The Potency was inconclusive: 14.8 µM [cytotoxic, partial curve].

And the Potency [6]?
The Potency was inconclusive: 14.8 µM [cytotoxic, partial curve].

What about the Potency [7] of the same molecule?
Its Potency is inconclusive: 18.7 µM [cytotoxic, partial curve, poor fit].

What about the Potency [8] of the same molecule?
The Potency was inconclusive: 16.6 µM [cytotoxic, partial curve, poor fit].

And the Potency [9]?
Its Potency is inconclusive: 20.9 µM [activator, partial curve, poor fit].

And the Potency [10]?
Its Potency is inconclusive: 23.6 µM [inhibitor, single point].

And the Potency [11]?
The Potency was inconclusive: 21.1 µM [activator, single point].

And the Potency [12]?
Its Potency is inconclusive: 26.3 µM [rising, single point].

And the Potency [13]?
Its Potency is “inactive”.

What about the Potency [14] of the same molecule?
The Potency was inconclusive: 7.41 µM [activator, single point].

And the Potency [15]?
Its Potency is inconclusive: 38.4 µM [inhibitor, single point].

And the Potency [16]?
The Potency was active: 18.6 µM.

And the Potency [17]?
Its Potency is inconclusive: 36.9 µM [inhibitor, single point].

What does the source list for `CC12C[C@]3(O)O[C@@H](O1)[C@]1(COC(=O)c4ccccc4)[C@@H]3CC21OC1OC(CO)C(O)C(O)C1O` (stereo partly specified)?
Potency [18]: inactive; Potency [1]: inconclusive: 14.9 µM [cytotoxic, partial curve]; Potency [19]: inactive; Potency [20]: inactive; Potency [4]: inactive; Potency [9]: inactive; Potency [10]: inactive; Potency [21]: inactive; Potency [13]: inactive; Potency [22]: inconclusive: 12.2 µM [inhibitor, partial curve, poor fit]; Potency [15]: inconclusive: 8.6 µM [inhibitor, partial curve]

Which results are given for `COc1cc2c(cc1OC)[C@@H](c1ccc3c(c1)OCO3)C(C)[C@@H](C)C2=O` (stereo partly specified)?
Potency [18]: inconclusive: 13.3 µM [cytotoxic, partial curve]; Potency [1]: inconclusive: 18.8 µM [cytotoxic, partial curve]; Potency [23]: inconclusive: 21.1 µM [cytotoxic, single point]; Potency [24]: inactive; Potency [19]: inconclusive: 33.2 µM [cytotoxic, single point]; Potency [25]: inconclusive: 37.2 µM [cytotoxic, partial curve, poor fit]; Potency [5]: inconclusive: 14.8 µM [cytotoxic, partial curve]; Potency [10]: inactive; Potency [11]: inactive; Potency [13]: inconclusive: 6.66 µM [cytotoxic, full curve, poor fit]; Potency [14]: inconclusive: 11.7 µM [activator, partial curve]; Potency [17]: inconclusive: 26.1 µM [inhibitor, single point]; Potency [26]: inactive
